Assay results published in a collection of fitness landscapes (doi:10.1016/j.celrep.2020.107928).
In all, about 81,000 sequences were measured (“one-hybrid fitness for binding parS DNA”: median about -0.17, highest 2% from about 0.51 on). The list shows a part of the results.

B1: Caulobacter ParB omega fusion; a variant is named by its letters at X, in order, B8GW30 (parent)
chain: MESVVVGEPGMSEGRRGLGRGLSALLGEVDAAPAQAPGEQLGGSREAPIEILQRNPDQPRRTFREEDLEDLSNSIREKGVLQPILVRPSPDTAGEYQIVAGERAWRAAQRAGLKTVPIMVRELDDLAVLEIGIIENVQRADLNVLEEALSYKVLMEKFERTQENIAQTIGKSXSHVANXMRLLXLPDEVQSYLVSGELTAXHARAIAAAADPVALAKQIIEGGLSVRETEALARKAPNLSAGKSKGGRPPRVKDTDTQALESDLSSVLGLDVSIDHRGSTGTLTITYATLEQLDDLCNRLTRGI

Variants of: B1
Assay: one-hybrid fitness for binding parS DNA (scaled: cognate 1, non-cognate 0); higher = stronger binding
Conditions: with parS DNA site
Method in brief: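 Fitness here means the log change in variant-to-wild-type read ratio between plasmids sequenced before and after selection. That scale was set so cognate equals 1 and non-cognate equals 0. The selection was a bacterial one-hybrid screen of Caulobacter ParB libraries, four specificity codons randomised, in E. coli USO carrying a HIS3 reporter with the site 19 bp from the promoter, grown 48 hours at 37°C on M9-minus-histidine with 0.1 mM IPTG and 5 mM 3-AT.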

| Variant | one-hybrid fitness for binding parS DNA |
| --- | --- |
| WLMG | ≤ 0.2 |
| FAGS | ≤ 0.2 |
| APQF | ≤ 0.2 |
| TAYY | ≤ 0.2 |
| DGGV | ≤ 0.2 |
| DVMT | ≤ 0.2 |
| HHAT | ≤ 0.2 |
| SGKW | ≤ 0.2 |
| QVTV | ≤ 0.2 |
| MKHV | ≤ 0.2 |
| LAVP | ≤ 0.2 |
| HILF | ≤ 0.2 |
| PKLA | ≤ 0.2 |
| KTHT | ≤ 0.2 |
| IQQG | ≤ 0.2 |
| HGSL | ≤ 0.2 |
| WPDR | ≤ 0.2 |
| HQNG | ≤ 0.2 |
| SDRY | ≤ 0.2 |
| QKLE | ≤ 0.2 |
| AIAH | ≤ 0.2 |
| APEF | ≤ 0.2 |
| QLQH | ≤ 0.2 |
| GCTK | ≤ 0.2 |
| CCAY | ≤ 0.2 |

| Variant | one-hybrid fitness for binding parS DNA |
| --- | --- |
| SRPW | ≤ 0.2 |
| VNPP | ≤ 0.2 |
| DYMS | ≤ 0.2 |
| WWEG | ≤ 0.2 |
| THSR | ≤ 0.2 |
| ERPF | ≤ 0.2 |
| PMML | ≤ 0.2 |
| EACF | ≤ 0.2 |
| PLPV | ≤ 0.2 |
| KRIR | ≤ 0.2 |
| HAAY | ≤ 0.2 |
| DEAM | ≤ 0.2 |
| PPWV | ≤ 0.2 |
| QNRN | ≤ 0.2 |
| SYRC | ≤ 0.2 |
| MHNS | ≤ 0.2 |
| KMMR | ≤ 0.2 |
| CFTV | ≤ 0.2 |
| WPDC | ≤ 0.2 |
| KPKV | ≤ 0.2 |
| PIDC | ≤ 0.2 |
| PRCS | ≤ 0.2 |
| TAHC | ≤ 0.2 |
| KTKN | ≤ 0.2 |
| MNTS | ≤ 0.2 |

| Variant | one-hybrid fitness for binding parS DNA |
| --- | --- |
| PNGS | ≤ 0.2 |
| TSNG | ≤ 0.2 |
| DIVD | ≤ 0.2 |
| TSQE | ≤ 0.2 |
| YCNA | ≤ 0.2 |
| GFTD | ≤ 0.2 |
| GIMA | ≤ 0.2 |
| RQLQ | ≤ 0.2 |
| VDVT | ≤ 0.2 |
| DHIR | ≤ 0.2 |
| IKHS | ≤ 0.2 |
| GGFT | ≤ 0.2 |
| TRVR | ≤ 0.2 |
| HNFC | ≤ 0.2 |
| SFFC | ≤ 0.2 |
| PTGT | ≤ 0.2 |
| GHTT | ≤ 0.2 |
| HSRE | ≤ 0.2 |
| ITYH | ≤ 0.2 |
| STHR | ≤ 0.2 |
| KGMR | ≤ 0.2 |
| QMMW | ≤ 0.2 |
| AIND | ≤ 0.2 |
| CIIW | ≤ 0.2 |
| SVRM | ≤ 0.2 |

| Variant | one-hybrid fitness for binding parS DNA |
| --- | --- |
| AMQS | ≤ 0.2 |
| WSQT | ≤ 0.2 |
| LYPV | ≤ 0.2 |
| VEAT | ≤ 0.2 |
| HIRL | ≤ 0.2 |
| FPHV | ≤ 0.2 |
| KCVL | ≤ 0.2 |
| TEGR | ≤ 0.2 |
| LSFV | ≤ 0.2 |
| YTHS | ≤ 0.2 |
| HPDC | ≤ 0.2 |
| RTIY | 0.418 |
| CQGC | ≤ 0.2 |
| ISDP | ≤ 0.2 |
| EFRL | ≤ 0.2 |
| YCRV | ≤ 0.2 |
| PTTT | ≤ 0.2 |
| QDEV | ≤ 0.2 |
| FPDQ | ≤ 0.2 |
| WRFR | ≤ 0.2 |
| IPVG | ≤ 0.2 |
| RWSH | ≤ 0.2 |
| TTQV | ≤ 0.2 |
| IHGR | ≤ 0.2 |
| QVIN | ≤ 0.2 |

| Variant | one-hybrid fitness for binding parS DNA |
| --- | --- |
| DSVC | ≤ 0.2 |
| QMTK | ≤ 0.2 |
| MRGF | ≤ 0.2 |
| QTYA | ≤ 0.2 |
| RIYR | ≤ 0.2 |
| RALC | 0.968 |
| LRGR | ≤ 0.2 |
| LASK | ≤ 0.2 |
| GMYE | ≤ 0.2 |
| EASW | ≤ 0.2 |
| YKDT | ≤ 0.2 |
| QLCC | ≤ 0.2 |
| ASDY | ≤ 0.2 |
| ICKS | ≤ 0.2 |
| CKLT | ≤ 0.2 |
| DMPW | ≤ 0.2 |
| RKCC | 0.908 |
| MTPY | ≤ 0.2 |
| PKCV | ≤ 0.2 |
| TVTV | ≤ 0.2 |
| KHKG | ≤ 0.2 |
| SWYE | ≤ 0.2 |
| CSLC | ≤ 0.2 |
| MHPW | ≤ 0.2 |
| RYIY | 0.352 |

| Variant | one-hybrid fitness for binding parS DNA |
| --- | --- |
| VKVS | ≤ 0.2 |
| SSLG | ≤ 0.2 |
| GIIW | ≤ 0.2 |
| SIHT | ≤ 0.2 |
| RPWI | ≤ 0.2 |
| IHNR | ≤ 0.2 |
| VIRD | 0.202 |
| TEKG | ≤ 0.2 |
| FPPH | ≤ 0.2 |
| RHCQ | ≤ 0.2 |
| TEGS | ≤ 0.2 |
| CNRM | ≤ 0.2 |
| TSAF | ≤ 0.2 |
| QIFR | ≤ 0.2 |
| RHFW | ≤ 0.2 |
| RAQM | 0.31 |
| IHVS | ≤ 0.2 |
| AFVL | ≤ 0.2 |
| NQPR | ≤ 0.2 |
| AVLT | ≤ 0.2 |
| QKKS | ≤ 0.2 |
| RTDQ | ≤ 0.2 |
| IGHL | ≤ 0.2 |
| LINS | ≤ 0.2 |
| PADI | ≤ 0.2 |

| Variant | one-hybrid fitness for binding parS DNA |
| --- | --- |
| ARRI | ≤ 0.2 |
| PCHL | ≤ 0.2 |
| PFLM | ≤ 0.2 |
| HAYN | ≤ 0.2 |
| MRVC | ≤ 0.2 |
| CKRS | ≤ 0.2 |
| HLNC | ≤ 0.2 |
| TCPE | ≤ 0.2 |
| TCNR | ≤ 0.2 |
| FTHW | ≤ 0.2 |
| RYWE | ≤ 0.2 |
| NSLY | ≤ 0.2 |
| NKIY | ≤ 0.2 |
| LNFM | ≤ 0.2 |
| AGDS | ≤ 0.2 |
| CSAM | ≤ 0.2 |
| EINR | ≤ 0.2 |
| NNET | ≤ 0.2 |
| AVGI | ≤ 0.2 |
| NKCR | ≤ 0.2 |
| AAMC | ≤ 0.2 |
| IMLS | ≤ 0.2 |
| GNDH | ≤ 0.2 |
| LTQR | ≤ 0.2 |
| KMVR | ≤ 0.2 |

| Variant | one-hybrid fitness for binding parS DNA |
| --- | --- |
| PHPS | ≤ 0.2 |
| FWRV | ≤ 0.2 |
| AAKI | ≤ 0.2 |
| YAKI | ≤ 0.2 |
| RRWK | ≤ 0.2 |
| LKLS | ≤ 0.2 |
| STWQ | ≤ 0.2 |
| QQTV | ≤ 0.2 |
| TYAV | ≤ 0.2 |
| TLRF | ≤ 0.2 |
| AYYT | ≤ 0.2 |
| PCPY | ≤ 0.2 |
| DPKC | ≤ 0.2 |
| DFRC | ≤ 0.2 |
| RRNS | 0.646 |
| PAAD | ≤ 0.2 |
| RYWN | 0.422 |
| WAVS | ≤ 0.2 |
| TESA | ≤ 0.2 |
| YVPM | ≤ 0.2 |
